Measurements taken from the supplement of paper PMC10369915.
The other results are listed elsewhere or left out. No stated cut-off is given here; in the data, active = 3.2 or more and inactive = the rest. Only a few entries rise above the background.

B1: IL23R_Y178_T175N_YF (peptide)
chain: FLNSSYINIST
B2: IL2RB_Y387_D391E_YF (peptide)
chain: FTFDPYSEEEP
B3: IL2RB_Y387_YF (peptide)
chain: FTFDPYSEEDP
B4: IL3RA_Y328_V323L (peptide)
chain: LICRRYLVMQR
B5: IL4R_Y575_Q576R (peptide)
chain: APTSGYREFVH
B6: INA_Y87 (peptide)
chain: ARTNEYKIIRT
B7: INO80_Y1104 (peptide)
chain: DSGKLYALDVL
B8: INO80_Y1104_V1108G (peptide)
chain: DSGKLYALDGL
B9: INPPL1_Y661_P659S (peptide)
chain: SFPSTYRYERG
B10: INPPL1_Y663_P659S_YF (peptide)
chain: PSTFRYERGSR
B11: INPPL1_Y663_YF (peptide)
chain: PPTFRYERGSR
B12: INPPL1_Y986_N982S (peptide)
chain: FSNPAYYVLEG
B13: INPPL1_Y986_N982S_YF (peptide)
chain: FSNPAYFVLEG
B14: INPPL1_Y987_N982S_YF (peptide)
chain: SNPAFYVLEGV
B15: INS_Y108_Y108C (peptide)
chain: YQLENCCNGGG
B16: INSR_Y1011 (peptide)
chain: FPCSVYVPDEW
B17: INSR_Y1185_M1180I (peptide)
chain: ITRDIYETDYY
B18: INSR_Y1190 (peptide)
chain: YETDYYRKGGK
B19: INSR_Y1190_R1191Q_YF (peptide)
chain: FETDFYQKGGK
B20: INSR_Y87_D86G (peptide)
chain: IMITGYLLLFR
B21: INSR_Y87_L89P (peptide)
chain: IMITDYLPLFR
B22: INTS13_Y67 (peptide)
chain: YCRIMYDIFPF
B23: IPO4_Y518 (peptide)
chain: ASLLPYFPAIM
B24: IPO5_Y530_E525K_YF (peptide)
chain: KKFVPYFDLFM
B25: IQCF1_Y144 (peptide)
chain: RIRRRYCQVLN
B26: IQGAP2_Y630_L629F (peptide)
chain: PESCFYKESWL
B27: IQGAP2_Y890 (peptide)
chain: YQQLFYLLQTN
B28: IQGAP2_Y890_T894I (peptide)
chain: YQQLFYLLQIN
B29: IRF3_Y107_Y107F (peptide)
chain: DPHKIFEFVNS
B30: IRF8_Y107_YF (peptide)
chain: DISEPYKVFRI
B31: IRS1_Y151_V154L (peptide)
chain: GEDLSYGDLPP
B32: IRS1_Y612 (peptide)
chain: HTDDGYMPMSP
B33: IRS1_Y896 (peptide)
chain: KSPGEYVNIEF
B34: ITGA11_Y1098 (peptide)
chain: LKALKYKSMKI
B35: ITGA2B_Y265_G267E_YF (peptide)
chain: EFFDGYWEFSV
B36: ITGA2B_Y265_YF (peptide)
chain: EFFDGYWGFSV
B37: ITGA2B_Y384_G380D (peptide)
chain: TDTQLYGRFGS

Molecular target: SHP2 C-SH2 domain E139D
Assay: enrichment score (SH2-bound / input frequency) (ratio); bacterial display of known human phosphotyrosine sites (pTyr-Var adds point mutants) read by sequencing; higher = stronger binding; tyrosines were phosphorylated by kinases first
Conditions: peptide library: pTyr-Var
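Further: displayed peptides selected on beads carrying the immobilized SH2 domain, with library peptides lacking any tyrosine serving as negative controls.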

Binder	enrichment score
B1	inactive: 2.47
B2	inactive: 0.912
B3	inactive: 0.855
B4	inactive: 0.277
B5	inactive: 0.811
B6	inactive: 0.692
B7	inactive: 0.729
B8	inactive: 0.694
B9	inactive: 0.74
B10	inactive: 0.409
B11	inactive: 0.249
B12	inactive: 1.15
B13	inactive: 1.19
B14	inactive: 0.933
B15	inactive: 1
B16	inactive: 1.01
B17	inactive: 0.948
B18	inactive: 0.485
B19	inactive: 0.751

Binder	enrichment score
B20	inactive: 2.3
B21	inactive: 1.63
B22	inactive: 1.73
B23	inactive: 1.54
B24	inactive: 2
B25	inactive: 0.273
B26	inactive: 0.731
B27	inactive: 2.82
B28	inactive: 2.86
B29	inactive: 1.09
B30	inactive: 0.656
B31	inactive: 0.644
B32	inactive: 0.691
B33	inactive: 1.59
B34	inactive: 0.595
B35	inactive: 0.568
B36	inactive: 0.951
B37	inactive: 0.682

Molecular target: SHP2 C-SH2 domain wild-type
Assay: as above
Conditions: peptide library: pTyr-Var

Binder	enrichment score
B1	inactive: 2.88
B2	inactive: 0.781
B3	inactive: 0.833
B4	inactive: 0.25
B5	inactive: 0.555
B6	inactive: 0.688
B7	inactive: 0.657
B8	inactive: 0.825
B9	inactive: 0.678
B10	inactive: 0.319
B11	inactive: 0.271
B12	inactive: 1.18
B13	inactive: 1.7
B14	inactive: 0.816
B15	inactive: 0.929
B16	inactive: 1.19
B17	inactive: 0.718
B18	inactive: 0.567
B19	inactive: 0.454

Binder	enrichment score
B20	inactive: 2.71
B21	inactive: 1.49
B22	inactive: 2.12
B23	inactive: 1.2
B24	inactive: 2.04
B25	inactive: 0.41
B26	inactive: 1.04
B27	inactive: 2.93
B28	inactive: 2.71
B29	inactive: 0.736
B30	inactive: 0.761
B31	inactive: 0.604
B32	inactive: 0.456
B33	inactive: 1.54
B34	inactive: 0.88
B35	inactive: 1.03
B36	inactive: 0.967
B37	inactive: 0.691

Molecular target: SHP2 N-SH2 domain L43F
Assay: as above
Conditions: peptide library: pTyr-Var

Binder	enrichment score
B1	inactive: 3.07
B2	inactive: 0.795
B3	inactive: 0.889
B4	inactive: 0.406
B5	inactive: 0.728
B6	inactive: 0.527
B7	inactive: 0.706
B8	inactive: 0.736
B9	inactive: 0.69
B10	inactive: 0.337
B11	inactive: 0.219
B12	inactive: 1.06
B13	inactive: 0.989
B14	inactive: 0.938
B15	inactive: 0.733
B16	inactive: 1.32
B17	inactive: 0.797
B18	inactive: 0.45
B19	inactive: 0.641

Binder	enrichment score
B20	inactive: 1.91
B21	inactive: 1.53
B22	inactive: 1.56
B23	inactive: 1.44
B24	inactive: 1.77
B25	inactive: 0.384
B26	inactive: 0.95
B27	inactive: 2.69
B28	inactive: 2.91
B29	inactive: 0.893
B30	inactive: 0.747
B31	inactive: 0.534
B32	inactive: 0.544
B33	active: 3.82
B34	inactive: 0.744
B35	inactive: 1.04
B36	inactive: 0.732
B37	inactive: 0.678

Molecular target: SHP2 N-SH2 domain T42A
Assay: as above
Conditions: peptide library: pTyr-Var

Binder	enrichment score
B1	active: 9.47
B2	inactive: 0.915
B3	inactive: 0.826
B4	inactive: 0.429
B5	inactive: 0.562
B6	inactive: 0.459
B7	inactive: 0.696
B8	inactive: 0.719
B9	inactive: 0.589
B10	inactive: 0.403
B11	inactive: 0.226
B12	inactive: 0.88
B13	inactive: 1.15
B14	inactive: 0.759
B15	inactive: 0.653
B16	inactive: 1.17
B17	inactive: 0.636
B18	inactive: 0.516
B19	inactive: 0.618

Binder	enrichment score
B20	inactive: 2.14
B21	inactive: 2.04
B22	inactive: 1.75
B23	inactive: 1.27
B24	inactive: 2.26
B25	inactive: 0.308
B26	inactive: 1.18
B27	inactive: 3.02
B28	inactive: 2.64
B29	inactive: 0.807
B30	inactive: 0.528
B31	inactive: 0.549
B32	inactive: 0.506
B33	active: 5.77
B34	inactive: 0.906
B35	inactive: 0.788
B36	inactive: 1.09
B37	inactive: 0.738

Molecular target: SHP2 N-SH2 domain T52S
Assay: as above
Conditions: peptide library: pTyr-Var

Binder	enrichment score
B1	inactive: 2.89
B2	inactive: 0.914
B3	inactive: 0.832
B4	inactive: 0.284
B5	inactive: 0.687
B6	inactive: 0.546
B7	inactive: 0.675
B8	inactive: 0.87
B9	inactive: 0.773
B10	inactive: 0.371
B11	inactive: 0.237
B12	inactive: 1.22
B13	inactive: 1.1
B14	inactive: 0.74
B15	inactive: 0.821
B16	inactive: 1.26
B17	inactive: 0.729
B18	inactive: 0.555
B19	inactive: 0.619

Binder	enrichment score
B20	inactive: 2.35
B21	inactive: 1.44
B22	inactive: 1.6
B23	inactive: 1.48
B24	inactive: 1.75
B25	inactive: 0.179
B26	inactive: 0.794
B27	inactive: 2.88
B28	inactive: 2.7
B29	inactive: 0.957
B30	inactive: 0.721
B31	inactive: 0.748
B32	inactive: 0.614
B33	active: 4.93
B34	inactive: 1.12
B35	inactive: 0.775
B36	inactive: 0.728
B37	inactive: 0.602

Molecular target: SHP2 N-SH2 domain wild-type
Assay: as above
Conditions: peptide library: pTyr-Var

Binder	enrichment score
B1	inactive: 2.64
B2	inactive: 0.891
B3	inactive: 0.852
B4	inactive: 0.379
B5	inactive: 0.69
B6	inactive: 0.508
B7	inactive: 0.829
B8	inactive: 0.818
B9	inactive: 0.582
B10	inactive: 0.405
B11	inactive: 0.201
B12	inactive: 1.09
B13	inactive: 1.13
B14	inactive: 0.827
B15	inactive: 0.925
B16	inactive: 1.33
B17	inactive: 0.875
B18	inactive: 0.629
B19	inactive: 0.667

Binder	enrichment score
B20	inactive: 1.8
B21	inactive: 1.52
B22	inactive: 1.66
B23	inactive: 1.43
B24	inactive: 1.85
B25	inactive: 0.253
B26	inactive: 1.46
B27	inactive: 2.66
B28	inactive: 2.97
B29	inactive: 1.09
B30	inactive: 0.71
B31	inactive: 0.76
B32	inactive: 0.542
B33	inactive: 1.48
B34	inactive: 0.743
B35	inactive: 1.24
B36	inactive: 0.97
B37	inactive: 0.817
